From the antibiotic and cytotoxicity screens of Wong et al. (2023)
Some of the results follow.

Tested on: S. aureus RN4220
Experiment: growth inhibition call (relative growth <= 0.2)
Settings: 50 µM

Growth inhibition call, inactive:
C[C@@H]1CN([C@@H](C)CO)C(=O)Cc2cc(NC(=O)CCCCCC(=O)Nc3ccccc3N)ccc2O[C@@H]1CN(C)S(=O)(=O)c1cn(C)cn1
Cc1noc(C)c1NC(=O)Nc1ccc2c(c1)C(=O)N([C@@H](C)CO)C[C@H](C)[C@H](CN(C)S(=O)(=O)c1cccs1)OCCCC[C@H](C)O2
C[C@@H]1CN([C@H](C)CO)S(=O)(=O)c2ccc(C3=CCCC3)cc2O[C@H]1CN(C)C(=O)C1CCOCC1
Nc1nonc1C(=O)N1CCCCC1
O=C(C[C@H]1CC[C@H]2[C@@H](COC[C@H](O)CN2C(=O)c2ccncc2)O1)NCc1ccc(-c2ccccc2)cc1
COc1ccc([C@H]2[C@@H](C(N)=O)C2(C#N)C#N)cc1
O=C(CCCCCCC(=O)Nc1ccc([C@H]2O[C@@H](CSc3ccncc3)C[C@@H](c3ccccc3)O2)cc1)NO
COc1ccc(S(=O)(=O)Nc2ccc3c(c2)C(=O)N([C@@H](C)CO)C[C@H](C)[C@@H](CN(C)S(=O)(=O)c2ccc(C)cc2)O3)cc1
Cc1nc(CSCc2ccc(Cl)cc2Cl)cs1
C[C@H]1CCCCO[C@@H](CN(C)C(=O)C2CCCCC2)[C@@H](C)CN([C@@H](C)CO)C(=O)c2cc(NS(=O)(=O)c3cccs3)ccc2O1
OC[C@H]1O[C@@H](S[C@@H]2O[C@H](CO)[C@H](O)[C@H](n3cc(-c4cccc(F)c4)nn3)[C@H]2O)[C@H](O)[C@@H](n2cc(-c3cccc(F)c3)nn2)[C@H]1O
C[C@H](CO)N1C[C@H](C)[C@H](CN(C)S(=O)(=O)c2ccc(F)cc2)Oc2c(NS(=O)(=O)c3cn(C)cn3)cccc2C1=O
COC(=O)[C@@H]1CCCC1=O
CS(=O)(=O)Nc1ccc2c(c1)[C@@H]1C[C@@H](CC(=O)NCC3CC3)O[C@H](CO)[C@@H]1O2
C[C@@H]1CC[C@H](C)N1c1cc(C(F)(F)F)cc(C(F)(F)F)c1
CC(C)NC(=O)N(C)C[C@@H]1Oc2c(NC(=O)C3CCCCC3)cccc2C(=O)N([C@H](C)CO)C[C@@H]1C
COc1ccc(S(=O)(=O)Nc2ccc3c(c2)C(=O)N([C@H](C)CO)C[C@@H](C)[C@@H](CN(C)Cc2ccccc2)OCCCC[C@H](C)O3)cc1
C[C@@H]1CCCCO[C@@H](CN(C)S(=O)(=O)c2ccc(Cl)cc2)[C@H](C)CN([C@H](C)CO)C(=O)c2cc(NC(=O)Nc3ccccc3)ccc2O1
Cc1ccc(S(=O)(=O)Nc2ccc3c(c2)CC(=O)N([C@H](C)CO)C[C@@H](C)[C@H](CN(C)S(=O)(=O)c2ccc(F)cc2)O3)cc1
CC(C)NC(=O)Nc1ccc2c(c1)C(=O)N([C@@H](C)CO)C[C@H](C)[C@@H](CN(C)S(C)(=O)=O)OCCCC[C@H](C)O2
Cc1noc(C)c1NC(=O)Nc1ccc2c(c1)C(=O)N([C@H](C)CO)C[C@H](C)[C@H](CN(C)Cc1ccc(Cl)c(Cl)c1)O2
CC(C)NC(=O)Nc1ccc2c(c1)C(=O)N([C@H](C)CO)C[C@@H](C)[C@H](CN(C)C(=O)NC1CCCCC1)O2
C[C@@H]1CCCCO[C@H](CN(C)C(=O)Nc2ccc(C(F)(F)F)cc2)[C@H](C)CN([C@@H](C)CO)C(=O)c2cc(NS(=O)(=O)c3ccc(F)cc3)ccc2O1
Cc1noc(C)c1NC(=O)N(C)C[C@@H]1Oc2ccc(NS(=O)(=O)c3cccs3)cc2CC(=O)N([C@@H](C)CO)C[C@H]1C
COc1ccc2c3c([nH]c2c1)[C@@H](CO)N(C[C@]13CCN(CC1)C(=O)c1ccncc1)C(=O)c1ccncc1
Cc1ccc(S(=O)(=O)Nc2ccc3c(c2)C(=O)N([C@H](C)CO)C[C@@H](C)[C@H](CN(C)Cc2ccc(C(F)(F)F)cc2)O3)cc1
C[C@H](CO)N1C[C@H](C)[C@H](CN(C)C)OCCCC[C@H](C)Oc2ccc(NC(=O)Nc3ccc(C(F)(F)F)cc3)cc2C1=O
COCC#Cc1ccc2c(c1)O[C@H](CN(C)C(=O)C1CCCCC1)[C@@H](C)CN([C@H](C)CO)S2(=O)=O
COc1ccccc1C#Cc1cnc2c(c1)C(=O)N([C@H](C)CO)C[C@H](C)[C@H](CN(C)C(=O)c1ccc3c(c1)OCO3)O2
CCN(CC)CCOCCOC(=O)C(CC)(CC)c1ccccc1.O=C(O)CC(O)(CC(=O)O)C(=O)O
C[C@@H]1CCCCO[C@@H](CN(C)Cc2ccc(C(F)(F)F)cc2)[C@@H](C)CN([C@@H](C)CO)C(=O)c2cc(NC(=O)CCC(F)(F)F)ccc2O1
CC(C)NC(=O)N(C)C[C@@H]1Oc2ccc(NC(=O)NC3CCCCC3)cc2C(=O)N([C@H](C)CO)C[C@H]1C
Cc1ccc(S(=O)(=O)N(C)C[C@@H]2Oc3ncc(Br)cc3C(=O)N([C@H](C)CO)C[C@H]2C)cc1
C[C@@H]1CN([C@H](C)CO)C(=O)c2cccc(NC(=O)c3ccc(-c4nccs4)cc3)c2O[C@H]1CN(C)S(C)(=O)=O
COc1ccc(S(=O)(=O)Nc2ccc3c(c2)C(=O)N([C@H](C)CO)C[C@@H](C)[C@@H](CN(C)Cc2ccc4c(c2)OCO4)OCCCC[C@H](C)O3)cc1
CC1=CC(=O)C2=C(C)CCC3C(C)C(=O)OC3C12 (stereo not given)
Cc1noc(C)c1NC(=O)Nc1ccc2c(c1)C(=O)N([C@@H](C)CO)C[C@@H](C)[C@H](CN(C)Cc1ccc(Cl)c(Cl)c1)O2
O=c1cc(CO)occ1O
C[C@@H]1CN([C@@H](C)CO)S(=O)(=O)c2ccc(C#CCC3CCCC3)cc2O[C@@H]1CN(C)C(=O)CN(C)C
C[C@@H]1CN([C@H](C)CO)C(=O)c2cc(NC(=O)Nc3ccccc3)ccc2O[C@@H](C)CCCCO[C@H]1CN(C)S(=O)(=O)c1cccs1
